# About 4,300 (8.3%) of roughly 52,000 compounds were called active. Cut-off read from the data, not from the text of the source: active = survival mostly below about 52% (no sharp cut-off); inactive = mostly above about 56%. Some of the results follow.
# Test system: DeltatarO mutant
# Assay: S. aureus survival, RN4220 and DeltatarO strains – OD600, teichoic acid synthesis inhibitors, primary screen (AID 463173)
# Details: S. aureus RN4220 wild type/DeltatarO growth, OD600, 18 h, hits give low values, screened at 18.75 µg/mL (by protocol)
row,Compound,survival
1,CCOC(=O)c1c(NC(=O)/C=C/c2ccc(OCC)c(OC)c2)sc2c1CCC2,inactive: 56%
2,COc1cccc(CNC(=O)CCCN2C(=O)CSc3c2c(C)nn3-c2ccccc2)c1OC,inactive: 102%
3,CCc1ccccc1NC(=O)CN(c1ccc(OC)cc1)S(=O)(=O)c1c(C)n[nH]c1C,inactive: 74%
4,CCc1nnc(NC(=O)c2ccc(S(=O)(=O)N3CCCCC3C)cc2)s1 (stereo not given),inactive: 65%
5,Cc1cccc(-c2nc3scc(CCNS(=O)(=O)c4ccc(F)cc4C)n3n2)c1,inactive: 94%
6,Cc1ccc(NC(=O)c2cc(S(=O)(=O)NCCC3=CCCCC3)ccc2F)cc1C,active: 20%
7,COc1ccc(-c2csc(N(CC(C)C)C(=O)c3cccs3)n2)cc1,inactive: 76%
8,Cc1oc(-c2ccccc2)nc1CNC(=O)NC1CCCCC1,inactive: 89%
9,COc1ccc(Nc2sc(C(=O)c3ccccc3)c(N)c2C(=O)Nc2cc(C)ccc2C)c(OC)c1,inactive: 95%
10,Cc1ccn2c(c1)nc(=O)c1cc(S(=O)(=O)N3CCCCC3)c(Cl)cc12,inactive: 90%
11,CCc1ccc(NC(=O)c2sc3nc(C)c(C(=O)Nc4ccc(C)cc4C)c(-c4ccco4)c3c2N)cc1,inactive: 81%
12,Cc1c(NC(=O)c2cc(-c3ccc(Br)cc3)on2)c(=O)n(-c2ccccc2)n1C,inactive: 51%
13,Cc1noc2ncnc(N3CCCC(C(=O)NC(C)C)C3)c12 (stereo not given),inactive: 71%
14,Cc1ccc(Cl)cc1N1CCN(CCCNc2ncnc3onc(-c4ccc(Cl)cc4)c23)CC1,inactive: 106%
15,COc1ccc(CCNC(=O)CSC2=Nc3ccccc3C3=NC(CCC(=O)NCc4ccccc4)C(=O)N23)cc1OC (stereo not given),inactive: 107%
16,Cc1cccc(CCNC(=O)C2CCN(c3ncnc4c3nc3n4CCCCC3)CC2)c1,inactive: 87%
17,Cc1cccc(NC(=O)CN2C(=O)c3ccccc3Sc3ncccc32)c1C,inactive: 90%
18,CCOC(=O)/C=C1\NC2(CCCC2)Cc2cc(OC)c(OC)cc21,inactive: 97%
19,O=C(CCCc1ccccc1)NC1CCCC1,inactive: 88%
20,CCn1c(NCc2ccc(OC)c(OC)c2)nc2ccccc21,inactive: 116%
21,Cc1cccc2cc(CN(CC3CCCO3)C(=O)CC(C)(C)C)c3nnnn3c12 (stereo not given),inactive: 73%
22,CCCCCn1c(CCCNC(=O)c2cccc(C)c2)nc2ccccc21,inactive: 51%
23,COc1ccc(NC(=O)c2ccc(NC(=O)CCS(=O)(=O)c3cccs3)cc2)cc1OC,inactive: 50%

row,Compound,survival
1,CCOC(=O)c1cc(-c2ccccc2)n(CCC(=O)Nc2cc(OCC)ccc2OCC)c1C,inactive: 73%
2,CC(C)CNC(=O)C1C2C=CC(C2)C1C(=O)O (stereo not given),inactive: 93%
3,Cc1ccc(C(=O)Nc2nc3ccc(S(=O)(=O)N4CCCC4)cc3s2)cc1,inactive: 73%
4,Cc1ccc(-c2nnc(SCC(=O)NC3CCCC3)nc2-c2ccc(C)cc2)cc1,inactive: 78%
5,COc1ccc(CN2C(=O)c3oc4ccc(F)cc4c(=O)c3C2c2ccc(O)cc2)cc1 (stereo not given),inactive: 96%
6,CCOc1ccc(NC(=O)CCC(=O)N2CC(C)Oc3ccc(C)cc32)cc1 (stereo not given),inactive: 67%
7,COc1ccc(C)cc1NC(=O)C1CCN(S(=O)(=O)c2c(C)noc2/C=C/c2ccco2)CC1,inactive: 78%
8,COc1cccc(-n2c(-c3ccc(Cl)cc3)cc3c2CC(C)(C)CC3=O)c1,active: 35%
9,O=C(Nc1ccc(F)cc1F)C(Cc1ccccc1)N1Cc2ccccc2C1=O (stereo not given),active: -4%
10,O=C(CCC(=O)N1CC2CCCN2c2ccccc21)NCc1cccc(Cl)c1 (stereo not given),active: 37%
11,COc1cc2c(=O)n(Cc3ccccc3Cl)c(=O)n(CC(=O)Nc3ccccc3)c2cc1OC,inactive: 75%
12,Cc1ccc(C(=O)n2nc(-c3ccco3)nc2NCc2cccs2)cc1,inactive: 69%
13,CC(C)CNS(=O)(=O)c1ccccc1,inactive: 86%
14,CC(C)Nc1nc(NC(C)C)nc(N(C)C)n1,inactive: 77%
15,CCCCn1cc2c(c1-c1ccccc1Br)c(=O)n(C)c(=O)n2C,inactive: 76%
16,Cc1nc(N2CCOCC2)c2c(C(=O)NCCc3ccccc3)c(C)oc2n1,active: 0%
17,CCc1nn(C(C)C(=O)N2CCN(c3cccc(C(F)(F)F)c3)CC2)c(=O)c2cc3occc3n12 (stereo not given),inactive: 73%
18,COC(=O)CNc1cccc(C(F)(F)F)c1,inactive: 64%
19,COc1cc(OC)cc(-c2nc3nc(C)c(CCC(=O)Nc4ccc(F)cc4F)c(C)n3n2)c1,inactive: 113%
20,CCCNC(=O)c1c(C)nn(-c2cccc(C)c2)c1-n1cccc1,inactive: 60%
21,CCC1=NN(C(=O)Cc2ccccc2)C(O)(c2ccccc2)C1 (stereo not given),inactive: 77%
22,CCN(CC)CCNC(=O)c1nn(-c2ccc(OC)c(Cl)c2)c(=O)c2c1c1ccccc1n2C,inactive: 109%
23,O=C(NCCc1ccccc1)C1(c2cccs2)CCOCC1,inactive: 77%

row,Compound,survival
1,CN(C)S(=O)(=O)n1cc(/C=C(\NC(=O)c2ccccc2Cl)C(=O)NCCCn2ccnc2)c2ccccc21,inactive: 89%
2,O=C(NCCc1ccccc1Cl)c1ccc2c(c1)nc1n2CCOC1,inactive: 74%
3,O=C(CSc1nc2c(c(=O)[nH]1)CN(Cc1ccc(F)cc1)CC2)Nc1ccccc1Cl,inactive: 80%
4,CCOc1ccccc1CNCCNC(=O)c1nonc1N,inactive: 134%
5,C=CCN1C(=O)CSC1=Nc1ccc(C(=O)O)cc1,inactive: 63%
6,COc1cc(OC)c(NC(=O)CC(c2cccs2)N2Cc3ccccc3C2=O)cc1Cl (stereo not given),inactive: 92%
7,Cc1ccc2ncc3c(-c4ccc(F)cc4)nn(-c4cccc(F)c4)c3c2c1,inactive: 93%
8,Cc1ccc2c(c1)c1c(c(=O)n(-c3ccccc3C)c(=O)n1CC(=O)N1CCCC1)n2C,inactive: 78%
9,Cc1ccccc1Nc1sc(C(=O)c2ccccc2)c(N)c1C(=O)NCc1ccc(Cl)cc1,inactive: 100%
10,CCc1ccccc1NC(=O)CSCc1cnn(-c2ccccc2)c1-n1cccc1,inactive: 57%
11,Cc1ccc(Cn2cc(C(=O)c3ccc(F)cc3)c(=O)c3cc4c(cc32)OCCO4)cc1,inactive: 67%
12,COc1cc(C(=O)OCc2cc(=O)n3nc(C4CCCCC4)sc3n2)cc(OC)c1OC,inactive: 119%
13,CCOC(=O)c1cc(C)n(CC2CCC(C(=O)Nc3ccc(C(C)=O)cc3)CC2)c1C (stereo not given),inactive: 102%
14,CCc1cccc(NC(=O)c2cn3c4c(ccc(Cl)c4c2=O)OC(C)C3)c1 (stereo not given),inactive: 73%
15,COc1ccc(N2CCN(C(=O)c3cccc(-n4c(C)nc5cccnc54)c3)CC2)cc1,inactive: 95%
16,CCn1nnc2cc(C(=O)Nc3ccc(Cl)cc3C)ccc21,inactive: 119%
17,CCc1cccc(-n2c(=O)c3cccnc3n2CC(=O)NCc2ccccc2)c1,inactive: 71%
18,O=C(NCCC1=CCCCC1)c1ccc2c(c1)N(Cc1ccccc1F)C(=O)c1ccccc1S2=O (stereo not given),inactive: 112%
19,Cc1ccc2nc(N3CCN(c4ccccc4)CC3)c3nnnn3c2c1,inactive: 88%
20,CCCNS(=O)(=O)c1ccc2nc(NC(=O)c3ccc(F)cc3)sc2c1,inactive: 93%
21,COC(=O)c1ccc(NC(=O)CSc2nc(C)cc(C)c2C(=O)Nc2ccccc2)cc1,inactive: 44%
22,Cc1nc(-c2ccc(S(=O)(=O)Nc3ccc(C#N)cc3)cc2)co1,inactive: 113%
23,COc1cc(NS(=O)(=O)c2cnc(N)nc2)cc(OC)c1,inactive: 76%

row,Compound,survival
1,CCOc1ccc(/C=C/C(=O)Nc2sc3c(c2C(=O)OC)C(C(=O)OC)CC3)cc1 (stereo not given),inactive: 56%
2,COc1ccc(C(=O)Nc2nccs2)c(OC)c1,inactive: 79%
3,O=c1[nH]c(=O)n(-c2ccccc2)c(O)c1C=Nc1ccc(S(=O)(=O)N2CCCCC2)cc1,inactive: 52%
4,Cc1ccc(-n2ncc(C(=O)NCCc3ccccc3)c2C2CCN(C(=O)OC(C)(C)C)CC2)c(C)c1,inactive: 91%
5,O=C(CSc1ccccc1)Nc1ccc(NC(=O)c2ccco2)cc1,inactive: 98%
6,COc1cccc(NC(=O)Cn2c(=O)cc(C)c3c(C)nn(-c4cccc(F)c4)c32)c1,inactive: 67%
7,CC1CCCCN1C(=O)Cn1c(=O)n(-c2ccc(Cl)cc2)c(=O)c2c3c(sc21)CCC3 (stereo not given),inactive: 139%
8,COc1ccc(CNC(=O)c2ccc(NC(=O)N3CC4CCCN4c4ccccc43)cc2)cc1 (stereo not given),inactive: 67%
9,CCN1CCN(C(c2ccc(OC)cc2)c2c(O)cc(C)n(Cc3ccco3)c2=O)CC1 (stereo not given),inactive: 74%
10,CCN(CC)c1nc2c(-c3cccc(Br)c3)nnn2c2ccccc12,inactive: 72%
11,OCCNCC(O)CN1c2ccccc2Sc2ccccc21 (stereo not given),inactive: 92%
12,COc1cccc(NC(=O)C2CCN(S(=O)(=O)c3cccc4nonc34)CC2)c1,inactive: 108%
13,COc1cc(C2CC(=O)Nc3c2c(C)nn3-c2nc(C)cc(C)n2)cc(OC)c1O (stereo not given),inactive: 78%
14,O=C(Cc1ccccc1)Nc1sc2c(c1C(=O)Nc1ccccc1)CCCCC2,inactive: 50%
15,COc1cccc(-c2nn3c(=O)cc(CN4CCN(S(=O)(=O)c5ccc(C)cc5)CC4)nc3s2)c1,inactive: 80%
16,Cc1ccc(CSc2nnc(-n3c(=O)c(C#N)cc4c(=O)n5cccc(C)c5nc43)s2)cc1,inactive: 101%
17,COc1ccc(-c2nc3ccccc3n3c(-c4cccc(C)c4)c4c(=O)n(C)c(=O)n(C)c4c23)cc1,inactive: 71%
18,Cc1ccc(C(=O)C2CCN(C(=O)Cc3ccccc3)CC2)cc1,inactive: 86%
19,CSc1nc(=O)c2c(n1C)NC(=O)CC2c1ccccc1OC(C)C (stereo not given),inactive: 46%
20,Cc1ccc(Nc2c(-c3ccc(N(C)C)cc3)nc3nc[nH]n23)cc1,inactive: 67%
21,COCCCn1c(=N)c(C(=O)NCC2CCCO2)cc2c(=O)n3cc(C)ccc3nc21 (stereo not given),inactive: 70%

# Source: PubChem BioAssay AID463173 (ICCB-Longwood Screening Facility, Harvard Medical School, 2010)
